Test results taken from the supplement of paper PMC12067230.
The data scatter; read single values as rough.

Experiment: amyloid nucleation score relative to library mode (yeast Sup35 reporter selection) (log enrichment difference); higher = more amyloid nucleation; sequences are the first 22 residues of the Bri2 peptide extended by up to 12 random residues
Conditions: random library (experiment): 1;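 active = nucleation score significantly above 0 at FDR 0.05; inactive = not significantly above 0 or absent from output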
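Note: [psi-pin-] Saccharomyces cerevisiae expressing SupN fusions, induced by 100 µM Cu2SO4, selected 7 d at 30 °C without adenine and uracil, scored by deep sequencing of output versus input.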

Sequence	amyloid nucleation score
EASNCFAIRHFENKFAVETLICRSKQKLVRSENV	inactive
EASNCFAIRHFENKFAVETLICRSKSFHVEGERK	inactive
EASNCFAIRHFENKFAVETLICRSLITMS	inactive
EASNCFAIRHFENKFAVETLICRSLIVYITLVKV	inactive
EASNCFAIRHFENKFAVETLICRSLLVSRFLSRI	inactive
EASNCFAIRHFENKFAVETLICRSLNATSLMTLL	-0.487
EASNCFAIRHFENKFAVETLICRSPRQSSIVPGR	inactive
EASNCFAIRHFENKFAVETLICRSQ	3.78
EASNCFAIRHFENKFAVETLICRSQGTWSEAMGF	inactive
EASNCFAIRHFENKFAVETLICRSQKAHK	inactive
EASNCFAIRHFENKFAVETLICRSREP	5.52
EASNCFAIRHFENKFAVETLICRSRLQDVREGQA	inactive
EASNCFAIRHFENKFAVETLICRSSFRDLLADVA	inactive
EASNCFAIRHFENKFAVETLICRSSGSRQTAGLF	inactive
EASNCFAIRHFENKFAVETLICRSSSRSGWSAWN	3.77
EASNCFAIRHFENKFAVETLICRST	inactive
EASNCFAIRHFENKFAVETLICRSTGQVISMLSL	inactive
EASNCFAIRHFENKFAVETLICRSTSWELYRGSR	2.5
EASNCFAIRHFENKFAVETLICRSTVMIWPRAFD	inactive
EASNCFAIRHFENKFAVETLICRSVGEGRTSASG	inactive
EASNCFAIRHFENKFAVETLICRSVHGVVRLVRE	inactive
EASNCFAIRHFENKFAVETLICRSVPIGDMPCSC	inactive
EASNCFAIRHFENKFAVETLICRSW	inactive

Same assay, conditions: random library (experiment): 2

Sequence	amyloid nucleation score
EASNCFAIRHFENKFAVETLICRSLVNNTIGRAW	inactive
EASNCFAIRHFENKFAVETLICRSMHDNMSIIHR	inactive
EASNCFAIRHFENKFAVETLICRSNMPRLRGY	inactive
EASNCFAIRHFENKFAVETLICRSPAWGGYILDS	inactive
EASNCFAIRHFENKFAVETLICRSQTLRRMILFM	-0.986
EASNCFAIRHFENKFAVETLICRSRFSSCIGKGG	0.423
EASNCFAIRHFENKFAVETLICRSRL	inactive
EASNCFAIRHFENKFAVETLICRSRVVNRSAYWE	4.35
EASNCFAIRHFENKFAVETLICRSSWRVCFWFEA	inactive
EASNCFAIRHFENKFAVETLICRSTCTTEVCYAS	inactive
EASNCFAIRHFENKFAVETLICRSV	inactive
EASNCFAIRHFENKFAVETLICRSVLNDCMYSDW	inactive
EASNCFAIRHFENKFAVETLICRSVSFP	inactive

Same assay, conditions: random library (experiment): 3

Sequence	amyloid nucleation score
EASNCFAIRHFENKFAVETLICRSLQSHATRELR	inactive
EASNCFAIRHFENKFAVETLICRSLTYMHLRVQP	inactive
EASNCFAIRHFENKFAVETLICRSMSRTSIWPTW	inactive
EASNCFAIRHFENKFAVETLICRSPLGRRRPTST	inactive
EASNCFAIRHFENKFAVETLICRSPQVGECVLG	inactive
EASNCFAIRHFENKFAVETLICRSQHTPFAIRHG	inactive
EASNCFAIRHFENKFAVETLICRSQWDGAREPAG	inactive
EASNCFAIRHFENKFAVETLICRSSTCREICYR	5.44
EASNCFAIRHFENKFAVETLICRSTAITSRSRCE	1.23
EASNCFAIRHFENKFAVETLICRSTI	1.34
EASNCFAIRHFENKFAVETLICRSVTIQKMLANV	5.69
